T1: IL-17RB (Homo sapiens, UniProt Q9NRM6)
T1 construct: purchased R&D systems
T1 sequence (Q9NRM6 18-502): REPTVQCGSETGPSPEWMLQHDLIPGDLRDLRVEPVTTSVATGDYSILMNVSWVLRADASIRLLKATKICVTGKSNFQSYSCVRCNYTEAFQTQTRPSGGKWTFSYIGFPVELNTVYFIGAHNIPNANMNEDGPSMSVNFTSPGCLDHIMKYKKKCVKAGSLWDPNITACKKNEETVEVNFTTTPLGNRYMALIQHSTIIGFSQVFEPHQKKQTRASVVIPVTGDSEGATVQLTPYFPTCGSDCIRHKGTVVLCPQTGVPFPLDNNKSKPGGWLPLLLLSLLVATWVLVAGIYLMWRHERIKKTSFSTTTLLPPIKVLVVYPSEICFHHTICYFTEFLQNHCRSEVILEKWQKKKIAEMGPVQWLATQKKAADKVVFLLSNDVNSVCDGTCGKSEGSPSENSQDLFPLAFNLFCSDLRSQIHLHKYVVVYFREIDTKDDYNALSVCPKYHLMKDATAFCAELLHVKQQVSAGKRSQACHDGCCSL

T2: IL-33 (Homo sapiens, UniProt O95760)
T2 construct: purchased R&D systems
T2 sequence (O95760 95-270): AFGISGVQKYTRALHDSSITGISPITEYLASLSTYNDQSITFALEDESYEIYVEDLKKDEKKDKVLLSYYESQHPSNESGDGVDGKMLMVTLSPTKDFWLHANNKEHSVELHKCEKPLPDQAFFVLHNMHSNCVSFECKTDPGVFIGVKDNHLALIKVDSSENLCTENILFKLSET


Experiments:
[1] = system: ILC2 population in human PBMC; assay: ILC2 cell population in human PBMC culture (flow cytometry); assay type: cell-based; design: key: −: no inhibition; +: weak; ++: moderate; +++: strong inhibition; conditions: IL-2 (10 unit/mL) and three alarmins (10 ng/ml), 5 days
Text: (§1) While alarmins are known to work in concert to enhance ILC2 and Th2 cell functions such as increase in cell population, steroids such as Dexamethasone (Dex) can negate these effects, resulting in the mitigation of type 2 immune responses [Jia, Yi et al. American Journal Of Respiratory Cell And Molecular Biology, vol. 55, 5 (2016): 675-683]. ILC2 and Th2 cell population can be determined by flow cytometry (BD FACSVerse) following standard procedures known to those skilled in the art.

[2] = system: Human PBMCs; assay: CCL8 and IFNγ release from human PBMC incubated with IL-12 and IL-33; assay type: cell-based; design: key to Intensity of specific cytokine inhibition, IFNγ / Intensity of specific cytokine inhibition, CCL-8: −: no binding; +: weak; ++: moderate; +++: strong binding; N/A refers to no binding affinity; conditions: 5 μg/ml
Procedure: (§2) Human PBMCs (4×10^5 per group, Ixcells) were incubated with IL-2 (10 unit/mL, PeproTech) and various alarmin/alarmin combinations to mimic the pro-inflammatory cytokines release during allergic diseases. For IL-5 and IL-13 releases, PBMCs were incubated with IL-2 and three alarmins (all 10 ng/ml) for three days. For CCL17 release, PBMC was incubated with TSLP (10 ng/ml) for 1 day. For CCL8 and IFNγ releases, PBMCs were incubated with IL-12 (10 ng/ml, Sino Biological) and IL-33 (10 ng/ml) for 1 day. Cells were pretreated with SM17 (5 μg/ml) or IgG4 isotype control (5 μg/ml) for an hour before the addition of cytokines.
(§3) Supernatants were collected and the cytokine concentration were measured by ELISA kits (R&D systems). These established assays were used to test the potency of and SM17 and bsBps. […] Results were expressed in absolute amount in pg/ml.
(§4) SM17, three different SM17-anti-IL33 bsBps and three different SM17-anti-TSLP bsBps (all at 5 μg/ml) were added to human PBMC cultures under conditions that shall induce the release of IFNγ, CCL8, CCL17 and IL-5 as described in Example 11 above. The levels of different cytokines and chemotactic factors in supernatant obtained in induced PBMC were evaluated using standard ELISA methods.

[3] = system: Th2 cell population in human PBMC; assay: Th2 cell population in human PBMC culture (flow cytometry); assay type: cell-based; design: key: −: no inhibition; +: weak; ++: moderate; +++: strong inhibition; conditions: IL-2 (10 unit/mL) and three alarmins (10 ng/ml), 5 days
Text: as §1

[4] = target: T1, IL-17RB; assay: ELISA, antigen binding specificity of bsBp (IL-17RB); design: key: −: no binding; +: weak; ++: moderate; +++: strong binding; N/A refers to no binding affinity; conditions: 33.5 nM; antigen coated at 2 μg/mL
Procedure: (§5) Binding specificities of bsBp were evaluated by standard ELISA assays. Briefly, ELISA strips were coated with the respective target antigens, including IL17RB, IL-33, or TSLP (R&D systems) at a final concentration of 2 μg/mL. Bispecific antibodies were added at 33.5 nM to ELISA strips coated with the desired antigen. After incubation under room temperature for 2 hours, ELISA strips were washed five times with PBS. […] No result is provided for SM17-human TSLPR as the yield was too low to be detected.

[5] = target: T2, IL-33; assay: ELISA, antigen binding specificity of bsBp (IL-33); design: key: −: no binding; +: weak; ++: moderate; +++: strong binding; N/A refers to no binding affinity; conditions: 33.5 nM; antigen coated at 2 μg/mL
Procedure: as §5

[6] = system: Human PBMCs; assay: IL-5 and IL-13 release from human PBMC incubated with IL-2 and three alarmins; assay type: cell-based; conditions: 5 μg/ml
Procedure: as §2, §3, §4

[7] = target: T2, IL-33; assay: Bio-Layer Interferometry (Octet), binding kinetics of bsBp to human IL-33
Procedure: (§6) The binding affinity of bsBp to the targeted alarmins was determined using a bio-Layer Interferometry analysis (Octet ReD96 system, Sartorius). bsBp or SM17 (20 μg/mL) was immobilized on biosensors via binding to anti-human Fab CH1 region; serially diluted human IL33 and TSLP (158.7 nM, 79.4 nM, 39.7 nM) (R&D systems) were added to plot the association and dissociation curve according to the manufacturer's specification. Biosensors immobilized with irrelevant antibody (SM03, anti-human CD22 chimeric IgG1 antibody, SinoMab BioScience Limited, 20 μg/mL) were used as control reference.

[8] = system: Normal human DCs; assay: Dendritic cell potency assay, TSLP-induced CCL17 production; assay type: cell-based; design: key: −: no inhibition; +: weak; ++: moderate; +++: strong inhibition; conditions: 5 μg/mL; TSLP 10 ng/mL, 5 days
Text: TSLP from inflamed epithelium promotes maturation of dendritic cells (DCs) to prime Th2 responses via CCL17, which induces chemotaxis of CD4+ T cells to mediate inflammation (Kitajima and Ziegler. 2013. “Cutting Edge: Identification Of The Thymic Stromal Lymphopoietin-Responsive Dendritic Cell Subset Critical For Initiation Of Type 2 Contact Hypersensitivity”. J Immunol 191: 4903-4907; Bleck et al. 2015. “Co-Expression Of Type 2 Immune Targets In Sputum-Derived Epithelial And Dendritic Cells From Asthmatic Subjects”. J Allergy Clin Immunol 136: 619-627.e5). Normal human DCs were obtained from Lonza (Bend, OR). The DCs were cultured in LGM-3 medium (Lonza). TSLP (10 ng/mL) is added into the DC cultures for 5 days in the presence of 5 μg/mL of SM17, IgG4 isotype control (Sino Biological), SM17-TSLPR bsBp (SM17 fused with TSLP receptor extracellular domain) or SM17-anti-TSLP bsBp 2 #. The supernatants are harvested and the levels of CCL17 measured by ELISA following the manufacturer's specification (R&D systems).

[9] = system: Human PBMCs; assay: CCL17 release from human PBMC incubated with TSLP; assay type: cell-based; design: key to Intensity of specific cytokine inhibition, CCL-17: −: no binding; +: weak; ++: moderate; +++: strong binding; N/A refers to no binding affinity; conditions: 5 μg/ml
Procedure: as §2, §3, §4

[10] = target: T3, TSLP (Homo sapiens, UniProt Q969D9); assay: Bio-Layer Interferometry (Octet), binding kinetics of bsBp to human TSLP
T3 construct: purchased R&D systems
Procedure: as §6

[11] = target: T3, TSLP; assay: ELISA, antigen binding specificity of bsBp (TSLP); design: key: −: no binding; +: weak; ++: moderate; +++: strong binding; N/A refers to no binding affinity; conditions: 33.5 nM; antigen coated at 2 μg/mL
Procedure: as §5

[12] = system: Th2 cell population in human PBMC; assay: Th2 cell population in human PBMC culture (flow cytometry); assay type: cell-based; design: key: −: no binding; +: weak; ++: moderate; +++: strong binding; N/A refers to no binding affinity; conditions: IL-2 (10 unit/mL) and three alarmins (10 ng/ml), 5 days
Text: as §1

[13] = bsBp or SM17 immobilized at 20 μg/mL

Row | Intensity of specific antigen binding, IL-17RB coated on ELISA strips [4] | Intensity of specific antigen binding, IL-33 coated on ELISA strips [5] | Kdis [7] | Ka [7, 13] | Kdis [10] | Ka [10, 13] | Intensity of specific antigen binding, TSLP coated on ELISA strips [11] | Molecule | Cell proliferation inhibition, ILC2 [1] | CCL8 release, suppression effect as compared to SM17 (in words) [2] | Intensity of specific cytokine inhibition, CCL-8 ([2]; human PBMC) | Intensity of specific cytokine inhibition, IFNγ ([2]; human PBMC) | Cell proliferation inhibition, Th2 [3] | IL-5 release, suppression effect as compared to SM17 (in words) [6] | Potency, inhibition of CCL17 release on dendritic cells [8] | CCL17 release, suppression effect as compared to SM17 (in words) [9] | Intensity of specific cytokine inhibition, CCL-17 ([9]; human PBMC) | Cell proliferation inhibition, Th2 [12]
1 | +++ | +++ | <1e-07 s⁻¹ | 22700 M⁻¹ s⁻¹ |  |  |  | SM17-anti IL-33 3# bsBp: bispecific binding protein, SM17 IgG fused to anti-IL-33 scFv; HC SEQ ID NO: 65, LC SEQ ID NO: 33 (antibody) heavy: MDLLHKNMKHLWFFLLLVAAPRWVLSQVQLVQSGAEVKKPGASVKVSCKASGYTFISYWMNWVRQAPGQGLEWMGRIDPYDSEIQYNQKFKDRVTMTRDTSISTAYMELSRLRSDDTAVYYCARSGGFDWFAYWGQGTLVTVSSASTKGPSVFPLAPCSRSTSESTAALGCLVKDYFPEPVTVSWNSGALTSGVHTFPAVLQSSGLYSLSSVVTVPSSSLGTKTYTCNVDHKPSNTKVDKRV[sequence of human IgG4 Fc with S228P (EU numbers) not given]GGGSGGGGSGGGGSEVQLLESGGGLVQPGGSLRLSCAASGSTFSDYYMNWVRQAPGKGLEWVSSISRYSSYIYYADSVKGRFTISRDNSKNTLYLQMNSLRAEDTAVYYCARDIGGMDVWGQGTLVTVSSGGGGSGGGGSGGGGSGGGGSQSVLTQPPSASGTPGQRVTISCTGSSSNIGAVYDVHWYQQLPGTAPKLLIYRNNQRPSGVPDRFSGSKSGTSASLAISGLRSEDEADYYCQTYDSSRWVFGGGTKLTVL light: DIQMTQSPSSLSASVGDRVTITCRASENINSNLAWYQQKPGKAPKLLLYDVTNLADGVPSRFSGSGSGTDYTLTISSLQPEDFATYYCQHFWGPPYTFGGGTKVEIKRTVAAPSVFIFPPSDEQLKSGTASVVCLLNNFYPREAKVQWKVDNALQSGNSQESVTEQDSKDSTYSLSSTLTLSKADYEKHKVYACEVTHQGLSSPVTKSFNRGEC | +++ | stronger suppression effect | ++ | + | +++ | strongest suppression effect |  |  |  | 
2 | +++ |  |  |  | 0.000241 s⁻¹ | 472000 M⁻¹ s⁻¹ | +++ | SM17-anti TSLP 1# bsBp: bispecific binding protein, SM17 IgG fused to anti-TSLP scFv; HC SEQ ID NO: 60, LC SEQ ID NO: 33 (antibody) heavy: MDLLHKNMKHLWFFLLLVAAPRWVLSQVQLVQSGAEVKKPGASVKVSCKASGYTFISYWMNWVRQAPGQGLEWMGRIDPYDSEIQYNQKFKDRVTMTRDTSISTAYMELSRLRSDDTAVYYCARSGGFDWFAYWGQGTLVTVSSASTKGPSVFPLAPCSRSTSESTAALGCLVKDYFPEPVTVSWNSGALTSGVHTFPAVLQSSGLYSLSSVVTVPSSSLGTKTYTCNVDHKPSNTKVDKRV[sequence of human IgG4 Fc with S228P (EU numbers) not given]GGGSGGGGSGGGGSQMQLVESGGGVVQPGRSLRLSCAASGFTFRTYGMHWVRQAPGKGLEWVAVIWYDGSNKHYADSVKGRFTITRDNSKNTLNLQMNSLRAEDTAVYYCARAPQWELVHEAFDIWGQGTMVTVSSGGGGSGGGGSGGGGSGGGGSSYVLTQPPSVSVAPGQTARITCGGNNLGSKSVHWYQQKPGQAPVLVVYDDSDRPSWIPERFSGSNSGNTATLTISRGEAGDEADYYCQVWDSSSDHVVFGGGTKLTVL light: DIQMTQSPSSLSASVGDRVTITCRASENINSNLAWYQQKPGKAPKLLLYDVTNLADGVPSRFSGSGSGTDYTLTISSLQPEDFATYYCQHFWGPPYTFGGGTKVEIKRTVAAPSVFIFPPSDEQLKSGTASVVCLLNNFYPREAKVQWKVDNALQSGNSQESVTEQDSKDSTYSLSSTLTLSKADYEKHKVYACEVTHQGLSSPVTKSFNRGEC | + |  |  |  |  |  | − | stronger suppression effect | + | ++

— patent publication US20240409647A1, “BISPECIFIC BINDING PROTEINS AGAINST ALARMINS AND USES THEREOF” (SINOMAB BIOSCIENCE LIMITED, priority 2022, published 2024)
